# Some of the results follow.
# What was measured:
# Assay in all cases: glycan array binding signal (z-score within array); higher = stronger binding
# Settings in all cases: glycan notation: IUPAC condensed, linker removed
# Gal6S(b1-4)Glc = biological target: Gal6S(b1-4)Glc
# Method in brief: (§1)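 The binding signal is a Z-score computed within each array. Data were drawn from 3228 arrays in the Consortium for Functional Glycomics database, restricted to those with a known protein sequence. Scores were averaged over arrays of the same protein sequence at different concentrations or buffers, and over linkers, and negative values can be taken as non-binding.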
# Gal6S(b1-4)Glc6S = biological target: Gal6S(b1-4)Glc6S
# Method in brief: as §1
# Gal6S(b1-4)GlcNAc = biological target: Gal6S(b1-4)GlcNAc
# Method in brief: as §1
# Gal6S(b1-4)GlcNAc6S = biological target: Gal6S(b1-4)GlcNAc6S
# Method in brief: as §1
# GalNAc(a1-3)Gal = biological target: GalNAc(a1-3)Gal
# Method in brief: as §1
# GalNAc(a1-3)GalNAc = biological target: GalNAc(a1-3)GalNAc
# Method in brief: as §1
# [1] = biological target: GalNAc(a1-3)GalNAc(b1-3)Gal(a1-4)Gal(b1-4)Glc
# Method in brief: as §1
# [2] = biological target: GalNAc(a1-3)GalNAc(b1-3)Gal(a1-4)Gal(b1-4)GlcNAc
# Method in brief: as §1
# GalNAc(b1-3)Gal = biological target: GalNAc(b1-3)Gal
# Method in brief: as §1
# [3] = biological target: GalNAc(b1-3)Gal(a1-4)Gal(b1-4)GlcNAc
# Method in brief: as §1
# [4] = biological target: GalNAc(b1-3)Gal(a1-4)Gal(b1-4)GlcNAc(b1-3)Gal(b1-4)Glc
# Method in brief: as §1
# [5] = biological target: GalNAc(b1-3)Gal(a1-6)Gal(b1-4)Glc
# Method in brief: as §1
# GalNAc(b1-3)GalNAc = biological target: GalNAc(b1-3)GalNAc
# Method in brief: as §1
# GalNAc(b1-3)GlcNAc = biological target: GalNAc(b1-3)GlcNAc
# Method in brief: as §1
# GalNAc(b1-4)Gal(b1-4)Glc = biological target: GalNAc(b1-4)Gal(b1-4)Glc
# Method in brief: as §1
# GalNAc(b1-4)GlcNAc = biological target: GalNAc(b1-4)GlcNAc
# Method in brief: as §1
# [6] = biological target: GalNAc(b1-4)GlcNAc(b1-2)Man
# Method in brief: as §1
# [7] = biological target: GalNAc(b1-4)GlcNAc(b1-2)Man(a1-3)[GalNAc(b1-4)GlcNAc(b1-2)Man(a1-6)]Man(b1-4)GlcNAc(b1-4)GlcNAc
# Method in brief: as §1
# [8] = biological target: GalNAc(b1-4)GlcNAc(b1-3)GalNAc(b1-4)GlcNAc
# Method in brief: as §1
# GalNAc(b1-4)GlcNAc6S = biological target: GalNAc(b1-4)GlcNAc6S
# Method in brief: as §1
# GalNAc(b1-6)GalNAc = biological target: GalNAc(b1-6)GalNAc
# Method in brief: as §1
# GalNAc3S(b1-4)GlcNAc = biological target: GalNAc3S(b1-4)GlcNAc
# Method in brief: as §1
# GalNAc3S(b1-4)GlcNAc3S = biological target: GalNAc3S(b1-4)GlcNAc3S
# Method in brief: as §1
# [9] = biological target: GalNAc3S(b1-4)[Fuc(a1-3)]GlcNAc
# Method in brief: as §1
# GalNAc4S6S(b1-4)GlcNAc = biological target: GalNAc4S6S(b1-4)GlcNAc
# Method in brief: as §1
# GalNAc6S(b1-4)GlcNAc = biological target: GalNAc6S(b1-4)GlcNAc
# Method in brief: as §1
# Glc(a1-4)Glc = biological target: Glc(a1-4)Glc
# Method in brief: as §1
# [10] = biological target: Glc(a1-4)Glc(a1-4)Glc(a1-4)Glc
# Method in brief: as §1
# Glc(a1-6)Glc(a1-6)Glc = biological target: Glc(a1-6)Glc(a1-6)Glc
# Method in brief: as §1
# [11] = biological target: Glc(a1-6)Glc(a1-6)Glc(a1-6)Glc
# Method in brief: as §1
# Glc(b1-4)Glc = biological target: Glc(b1-4)Glc
# Method in brief: as §1
# Glc(b1-6)Glc = biological target: Glc(b1-6)Glc
# Method in brief: as §1
# GlcA(b1-3)Gal = biological target: GlcA(b1-3)Gal
# Method in brief: as §1
# GlcA(b1-3)GlcNAc = biological target: GlcA(b1-3)GlcNAc
# Method in brief: as §1
# GlcA(b1-6)Gal = biological target: GlcA(b1-6)Gal
# Method in brief: as §1
# [12] = biological target: GlcA3S(b1-3)Gal(b1-4)GlcNAc(b1-2)Man
# Method in brief: as §1
# [13] = biological target: GlcA3S(b1-3)Gal(b1-4)GlcNAc(b1-3)Gal(b1-4)Glc
# Method in brief: as §1
binder,measurement,setting,value
"AT1G15820(2) (Arabidopsis thaliana), Q9LMQ2 (protein) MAMAVSGAVLSGLGSSFLTGGKRGATALASGVGTGAQRVGRKTLIVAAAAAQPKKSWIPAVKGGGNFLDPEWLDGSLPGDFGFDPLGLGKDPAFLKWYREAELIHGRWAMAAVLGIFVGQAWSGVAWFEAGAQPDAIAPFSFGSLLGTQLLLMGWVESKRWVDFFNPDSQSVEWATPWSKTAENFANYTGDQGYPGGRFFDPLGLAGKNRDGVYEPDFEKLERLKLAEIKHSRLAMVAMLIFYFEAGQGKTPLGALGL",glycan array binding signal (z-score),Gal6S(b1-4)Glc,0.21
same,glycan array binding signal (z-score),Gal6S(b1-4)Glc6S,0.531
same,glycan array binding signal (z-score),Gal6S(b1-4)GlcNAc,0.19
same,glycan array binding signal (z-score),Gal6S(b1-4)GlcNAc6S,-0.432
same,glycan array binding signal (z-score),GalNAc(a1-3)Gal,-0.214
same,glycan array binding signal (z-score),GalNAc(a1-3)GalNAc,-0.169
same,glycan array binding signal (z-score),[1],-0.102
same,glycan array binding signal (z-score),[2],0.031
same,glycan array binding signal (z-score),GalNAc(b1-3)Gal,-0.276
same,glycan array binding signal (z-score),[3],3.99
same,glycan array binding signal (z-score),[4],-0.301
same,glycan array binding signal (z-score),[5],0.018
same,glycan array binding signal (z-score),GalNAc(b1-3)GalNAc,0.021
same,glycan array binding signal (z-score),GalNAc(b1-3)GlcNAc,-0.04
same,glycan array binding signal (z-score),GalNAc(b1-4)Gal(b1-4)Glc,0.252
same,glycan array binding signal (z-score),GalNAc(b1-4)GlcNAc,8.56
same,glycan array binding signal (z-score),[6],-0.065
same,glycan array binding signal (z-score),[7],0.719
same,glycan array binding signal (z-score),[8],-0.566
same,glycan array binding signal (z-score),GalNAc(b1-4)GlcNAc6S,0.01
same,glycan array binding signal (z-score),GalNAc(b1-6)GalNAc,-0.112
same,glycan array binding signal (z-score),GalNAc3S(b1-4)GlcNAc,-0.127
same,glycan array binding signal (z-score),GalNAc3S(b1-4)GlcNAc3S,-0.371
same,glycan array binding signal (z-score),[9],-0.59
same,glycan array binding signal (z-score),GalNAc4S6S(b1-4)GlcNAc,-0.032
same,glycan array binding signal (z-score),GalNAc6S(b1-4)GlcNAc,-0.68
same,glycan array binding signal (z-score),Glc(a1-4)Glc,0.453
same,glycan array binding signal (z-score),[10],-0.399
same,glycan array binding signal (z-score),Glc(a1-6)Glc(a1-6)Glc,0.081
same,glycan array binding signal (z-score),[11],0.217
same,glycan array binding signal (z-score),Glc(b1-4)Glc,-0.403
same,glycan array binding signal (z-score),Glc(b1-6)Glc,0.035
same,glycan array binding signal (z-score),GlcA(b1-3)Gal,0.108
same,glycan array binding signal (z-score),GlcA(b1-3)GlcNAc,-0.355
same,glycan array binding signal (z-score),GlcA(b1-6)Gal,-0.113
same,glycan array binding signal (z-score),[12],-0.297
same,glycan array binding signal (z-score),[13],-0.177
